The record followed here is patent US20060122119A1, “Peptides for use in antitumor immunotherapy” (Institut Nat'l De La Sante Et De La Recherche Med., priority 2002, published 2006).

Test [1] addresses T1, HLA-B35 (Homo sapiens, UniProt P01889, A329T/A93T/A95T/C349S/D201E/D98Y/E176V/E187L/E204Q/E69T/I218V/K202T/L119I/Q94N/R155S/R180L/S121R/S35A/S48A/T118I/V127L/V306I/V36M/Y140S/Y91F). Briefly: Relative affinity for HLA-B35: HLA-B35 stabilization at the BM36.1 cell surface, flow cytometry. The settings on record: [peptide] for 20% binding / [peptide 37F] for 20% binding; BM36.1 cells, 18 h. A general note: Flow cytometry measures light scatter and fluorescence of single cells or particles in a stream.

Test [2] addresses T1, HLA-B35. Briefly: Stability of the peptide on HLA-B*35: BM36.1 cells, BFA block, flow cytometry. The settings on record: BM36.1 cells incubated 18 h with 100 μM peptide, then BFA. It is filed as binding.
For a further test, the system named is clone M28.10B. The conditions noted are these: read-out: EC 50 (amount of peptide necessary to obtain 50% of the maximum lysis), BM36.1 cells, effector:target 10:1, 4 hours.
For a further test, the system named is clone M118.45. The settings on record: read-out: EC 50 (amount of peptide necessary to obtain 50% of the maximum lysis), BM36.1 cells, effector:target 10:1, 4 hours.
The subject of the next test is BM36.1 cells. Briefly: 51Cr-release lysis of ras-peptide-pulsed BM36.1 cells by a T clone induced with 55-64^Q61R. The conditions noted are these: 10 μM peptide; 5×10^3 T cells to 10^3 BM36.1 cells; 4 hours. It is filed as cell-based. The procedure:
Lymphocyte clones were obtained by limiting dilution from the cells of the culture wells containing 0.5% of reactive T cells.
The cells are then pulsed for 1 hour at 37° C. with 10 μM of peptide 55-64^WT or of peptide 55-64^Q61R, and washed. […] The culture supernatants are recovered and the percentage of released ^51Cr is evaluated.

Ends that are not written are not given here.

Take TPRLPSSADVEF: the “RA (relative affinity)” value at HLA-B35 [1] is 1.3. The “Stability (half-life time of the peptide on the HLA-B*35)” value (shortened to “Stability”) on HLA-B35 [2] is greater than 6 h. Regarding EPAGIGILTY, the EC50 in the test on clone M28.10B was 0.05 nM. In the case of EVDPIGHVY, the “RA (relative affinity)” value at HLA-B35 [1] was 1.1. Moreover, the “Stability” value at HLA-B35 [2] is 6 h.

MPFATPMEA: in the test on clone M118.45, the EC50 came out at 0.001 nM. Further, the “RA (relative affinity)” value on HLA-B35 [1] worked out at 0.4. For the same sequence, the “Stability” value at HLA-B35 [2] is greater than 6 h.

On to EAAGIGILTY, for which the EC50 with clone M28.10B came to 0.01 nM. As to VPLDCVLYR, the “RA (relative affinity)” value on HLA-B35 [1] stood at 20. Besides, the “Stability” value on HLA-B35 [2] is less than 0.5 h.

In the case of EPAGIGILY, the “RA (relative affinity)” value on HLA-B35 [1] turned out to be 0.4. Moreover, on HLA-B35 [2], the “Stability” value was greater than 6 h. Consider LAMPFATPMEAEL, for which the “RA (relative affinity)” value on HLA-B35 [1] is on record as 0.58. For the same sequence, the “Stability” value at HLA-B35 [2] is greater than 6 h. For “ILDTAGREEY (listed as Homo sapiens) [55-64^Q61R, ras peptide 55-64 mutated at position 61 (Q61R)]”, the “lysis of the BM36.1 cells pulsed with the peptide” value with BM36.1 cells is “Considerable lysis”. For MPFATPMEAEL, the “RA (relative affinity)” value at HLA-B35 [1] is on record as 1.32. On HLA-B35 [2], the “Stability” value was greater than 6 h.

Turning to TPRLPSSADVEFC, on HLA-B35 [1], the “RA (relative affinity)” value is reported as 16.7. Moreover, the “Stability” value at HLA-B35 [2] was less than 0.5 h. The matching figures for TPRLPSSADVEFCL: greater than 20 and greater than 6 h.

Consider EVDPIGHLY [reference compound], for which, at HLA-B35 [1], the “RA (relative affinity)” value was 2.3. The “Stability” value at HLA-B35 [2] was greater than 6 h. For “ILDTAGQEEY (listed as Homo sapiens) [55-64^WT, wild-type ras peptide 55-64, reference compound]”, in the test on BM36.1 cells, the “lysis of the BM36.1 cells pulsed with the peptide” value is “very low”.

For VPLDCVLYRY, at HLA-B35 [1], the “RA (relative affinity)” value was found to be 2.6. In addition, the “Stability” value at HLA-B35 [2] was greater than 6 h.

With MPFATPMEAE, the “Stability” value on HLA-B35 [2] was greater than 6 h.

As for EAAGIGILY, the “RA (relative affinity)” value on HLA-B35 [1] is 1.32. For the same sequence, the “Stability” value at HLA-B35 [2] was greater than 6 h.

LAMPFATPMEAE: at HLA-B35 [2], the “Stability” value was greater than 6 h.
